# PubChem BioAssay AID1347073 (National Center for Advancing Translational Sciences (NCATS), 2019)
# Screen size: about 45,000 compounds; about 200 (0.44%) were called active. Another 7% or so got no clear call; they are omitted. Calls come from the whole dose curve; as a rule, active = well fitted activation curve with a large enough effect; inconclusive = small, poorly fitted or top-dose-only effect; inactive = no such curve, though single readings can be large or run the other way. The list shows a part of the results.
# Experiment: qHTS of TDP-43 Inhibitors: NCGC Sytravon Library Screen; note: 0% is about no effect; nearly all actives have a fitted effect of over 55% in size
# Details: yeast TDP-43 toxicity rescue, BacTiter-Glo growth, 24 h; series mostly up to 46.1 µM; growth rescue (activation): at the top concentration
# Summary of the method: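 TDP-43-expressing yeast, pregrown in raffinose, seeded at OD600 0.02 in galactose medium with compound for 24 hr at 30 deg C. Growth read by BacTiter-Glo luminescence, so rescue of toxicity appears as activation.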
Compound,growth rescue (activation),Potency
Cc1ccc(CNC(=O)c2nc3nc(C)cc(C)n3n2)cc1,inactive: 8.06%,
Cc1cc(C(F)(F)F)n2nc(C)c(-c3ccc(Cl)cc3)c2n1,inactive: 22.1%,
COc1cc(/C=N/NC(=O)c2ccoc2C)ccc1O,inactive: 6.13%,
Cc1cc(C(=O)Nc2ccc3ccccc3c2)c(C)o1,inactive: 16.7%,
CCN(CC)c1ccc(N)cc1S(=O)(=O)Nc1ccccc1OC,inactive: -15.7%,
CC(=O)N1CCC(N(CCN2CCOCC2)C(=S)Nc2ccc(C)cc2)CC1,inactive: 17.4%,
CCCCn1c(N)c(Sc2ccc([N+](=O)[O-])cc2)c(=O)[nH]c1=O,inactive: -22.2%,
Cn1c(=O)[nH]c(=O)c2c1nc(N1CCNCC1)n2CCOc1ccccc1,inactive: 14.1%,
CCOC(=O)C(=O)Nc1ncc(Cl)s1,inactive: 29.8%,
CC1(C)NC(=O)N(Cc2cc(=O)n3ccsc3n2)C1=O,inactive: -6.23%,
COc1cc(CNc2ncnc3c2ncn3[C@H]2CN(Cc3cccc(C(F)(F)F)c3)C[C@@H](COC(C)=O)O2)cc(OC)c1OC,inactive: 3.32%,
COCCn1cc(C(=O)NCc2ccco2)c2c3ccccc3n(C)c2c1=O,inactive: 4.44%,
O=C(Cc1cccs1)Nc1ccccn1,inactive: -8.71%,
Cc1cccc(NS(=O)(=O)c2cc(C(=O)N3CCOCC3)ccc2Cl)c1,inactive: -15.4%,
CC1CCCC(C)N1C(=O)COc1ccc(C(=O)N/N=C/c2ccc(C(=O)O)cc2)cc1 (stereo not given),inactive: -0.75%,
CCc1nnc(NC(=O)c2oc3ccc(Br)cc3c2C)s1,inactive: 13.6%,
CNc1ccc(-c2ccccc2CO)cn1,inactive: 11.8%,
COc1cccc(NC(=O)CN2C(=O)NC3(CCCC3)C2=O)c1,inactive: 10.5%,
COc1ccc(-c2c(-c3ccc(OCC(=O)NN)cc3O)n[nH]c2C)cc1,inactive: 24.6%,
COc1ccc(-c2cc(-c3n[nH]c(=S)n3-c3ccccc3Cl)[nH]n2)cc1,inactive: 4.2%,
COc1cc(NC(=O)c2ccc(-c3cn[nH]c3)c3ccoc23)cc(OC)c1OC,inactive: 7.89%,
CCOc1ccccc1C(C(=O)NC1CCCCC1)N(C(=O)c1csnn1)C1CC1 (stereo not given),inactive: -4.07%,
Cc1ccc(/C=C2\Oc3cc(OCC(=O)NN)ccc3C2=O)o1,inactive: 9.46%,
CCNC(=O)N(C)c1c(CC)nc2ccc(C(=O)N3CCN(S(=O)(=O)CC)CC3)cn12,inactive: -1.71%,
CC(=O)Nc1ccc(S(=O)(=O)Nc2cc(Cl)ccc2N2CCOCC2)cc1,inactive: 21.7%,
COc1ccc(OC)c(NC(=O)c2cc3c(=O)n4ccccc4nc3n2C)c1,inactive: 13.1%,
COC(=O)Cc1[nH]nc2c1C(C1C=CCCC1)C(C#N)=C(N)O2 (stereo not given),inactive: 6.03%,

Compound,growth rescue (activation),Potency
N#CCCN(Cc1cccnc1)C(=S)NC(=O)c1ccccc1,inactive: 6.48%,
Cc1ccc(S(=O)(=O)c2nc(-c3ccco3)oc2SC(C)C)cc1,inactive: -3.47%,
CCOCCCNC(=O)c1cc(Sc2nnc(C)s2)nc2ccccc12,inactive: 10.6%,
COCCCn1cnc2c(c1=O)c1nc3ccccc3nc1n2-c1ccccc1,inactive: 13.4%,
O=C1COc2ccc(C(=O)COC(=O)COc3ccccc3[N+](=O)[O-])cc2N1,inactive: 4.09%,
Cc1ccnc(NC(=O)CCC(=O)N(CC(=O)NCc2ccccc2)Cc2ccco2)c1,inactive: 14.4%,
CCOC(=O)c1[nH]c(C)c(C(=O)OCCOc2cccc(C)c2)c1C,inactive: -3.43%,
COc1cccc(OCc2nnc3n2N=C(c2ccccc2)C(CC(=O)O)S3)c1 (stereo not given),inactive: 8.63%,
COc1ccc(NC(=S)NCCCN2CCCC2)cc1,inactive: -1.51%,
CCn1c(SCc2ccc(OC)c(F)c2)nc2ccccc2c1=O,inactive: -11.9%,
NC(=O)c1cc(Cl)ccc1OCC(=O)N1CCCc2ccccc21,inactive: 9.81%,
N#Cc1ccc(COC(=O)CC(NC(N)=O)c2ccc(Cl)cc2)cc1 (stereo not given),inactive: 11.8%,
CC(C)c1onc(C(=O)NC2CCCCC2)c1[N+](=O)[O-],inactive: 10.7%,
COc1ccccc1NC(=O)c1cc2c(s1)-c1ccccc1S(=O)(=O)C2,inactive: 14.2%,
CC(=O)Nc1ccc(S(=O)(=O)NCC(=O)NNC(=O)COc2c(C)cccc2C)cc1,inactive: 22.6%,
COc1ccc(CN2C[C@@H](CO)O[C@@H](n3cnc4c(N5CCN(c6ccccc6)CC5)ncnc43)C2)cc1,inactive: 3.44%,
CCc1nnc(NC(=O)[C@@H](NS(=O)(=O)c2ccc3c(c2)OCCO3)C(C)C)s1,inactive: 5.74%,
COc1ccc(C2CC(c3ccccc3)=NN2C(=O)COC(=O)c2cccnc2Cl)cc1 (stereo not given),inactive: 4.98%,
Cc1cc(C#N)c2ccccc2n1,inactive: 8.33%,
O=C(/C=C/c1ccco1)OCC1CCCN2CCCCC12 (stereo not given),inactive: -4.07%,
COc1cccc(NC(=O)CCSc2ccc(C)cc2)c1,inactive: 29.7%,
COc1ccc(N(C(=O)c2snc(C(N)=O)c2N)C(C(=O)NC2CCCC2)c2ccc(F)cc2)c(OC)c1 (stereo not given),inactive: 5.45%,
CCCc1cc(=O)[nH]c(SCC(=O)N2CCOCC2)n1,inactive: -1.73%,
O=C(CNC(=O)c1ccco1)NCc1ccc2c(c1)OCO2,inactive: 18.3%,
O=C(Cc1ccccc1)N/N=C/c1ccc([N+](=O)[O-])s1,inactive: -7.13%,
CCS(=O)(=O)c1ccc2oc(Nc3ccc(OC)c(OC)c3)nc2c1,inactive: 5.79%,
CC(=O)Nc1ccc(N/C=C2/CCCC2=O)cc1,inactive: -9.48%,

Compound,growth rescue (activation),Potency
COc1cc(OC)c(OC)cc1/C=N/NC(=O)c1ccc2nc[nH]c2c1,inactive: -0.791%,
O=C1NCCN(Cc2ccc(-c3ccccc3)cc2)C1CC(=O)N1CCN(CCO)CC1 (stereo not given),inactive: -6.53%,
Cc1ccc(S(=O)(=O)N2CCN(c3ccc([N+](=O)[O-])c4cccnc34)CC2)cc1,inactive: -0.593%,
COc1ccc([N+](=O)[O-])cc1N(CC(=O)NCCC1=CCCCC1)S(C)(=O)=O,inactive: -2.64%,
CC1CC(C)CN(CC(=O)NCCc2ccc(S(N)(=O)=O)cc2)C1 (stereo not given),inactive: 12.2%,
COc1ccccc1N1CCN(C(=O)Cc2c(C(=O)O)[nH]c3ccc(Cl)cc23)CC1,inactive: 1.76%,
Cc1ccc(CCN2CC(C(=O)NCCN3CCOCC3)CC2=O)cc1 (stereo not given),inactive: -9.41%,
CCc1nc2c(OCC(=O)C(C)(C)C)cccn2c1N(C)C(=O)c1ccccc1F,inactive: 1.58%,
Cc1ccc(-c2nn3cnnc3c3ccccc23)cc1,inactive: 20.2%,
COc1nc(-c2ccccc2)c2c(c1C#N)CC(C)(C)OC2,inactive: 11%,
Cc1cccc(N(C(=O)c2csnn2)C(C(=O)NCc2ccccc2)c2ccc(C)o2)c1 (stereo not given),inactive: 16.3%,
Cc1ccc(NC(=O)COC(=O)Cn2cnc3c2c(=O)n(C)c(=O)n3C)cc1,inactive: -1.89%,
COc1ccc(C)cc1NC(=O)c1cc2c(s1)-c1ccccc1SC2,inactive: 23.7%,
Cc1nn(C2CCS(=O)(=O)C2)c(Cl)c1/C=C/C(=O)OCC(=O)Nc1ccc2c(c1)OCO2 (stereo not given),inactive: 13%,
CCc1nc2ccc(C(=O)Nc3cc(-c4ccccc4)ccc3OC)cn2c1N(C)CCCc1ccccc1,inactive: 13.9%,
Cc1cc(O)ccc1N1C(=O)c2cccc3cc([N+](=O)[O-])cc(c23)C1=O,inactive: 7.97%,
CC(=O)c1ccc(OCCCC(=O)Nc2ccc(C)c(S(=O)(=O)N3CCOCC3)c2)cc1,inactive: 0.583%,
COc1ccc(CN(Cc2ccc(C(=O)O)cc2)C(=S)Nc2ccccc2Cl)cc1OC,inactive: 7.93%,
Cc1ccnc2nc(C(=O)OCC(=O)NC(=O)NCc3ccco3)nn12,inactive: 3.39%,
CCC(=O)NNC(=O)c1c(O)c2ccccc2[nH]c1=O,inactive: -10.2%,
Cn1c(=O)n(C)c2cc(S(=O)(=O)N3CCCCC3)ccc21,inactive: 6.72%,
FC(F)(F)c1cnc(Sc2ncn[nH]2)c(Cl)c1,inactive: -1.87%,
O=C(N/N=C/C1=C(N2CCOCC2)C(=C\c2ccccc2)/CC1)Nc1ccccc1,inactive: 6.05%,
COc1ccc(NC(=O)C2CCCN(C(=O)Nc3ccc(F)cc3)C2)cc1OC (stereo not given),inactive: 6.45%,
CCOc1ccccc1C(=O)NCC(=O)N1CCC(C)CC1,inactive: 11.8%,
C/C(N)=C(/C#N)C(=O)CSc1nc(C2CCCCC2)n(-c2ccccc2)n1,inactive: 21.2%,
COc1ccccc1CNCC(=O)N1CC(=O)Nc2ccccc21,inactive: -6.28%,

Compound,growth rescue (activation),Potency
NS(=O)(=O)c1cccc(NC(=O)Cn2nc(C(=O)O)c3ccccc3c2=O)c1,inactive: -24.2%,
COc1ccccc1Oc1ccc(N/C=C/C(=O)C(C)(C)C)cc1,inactive: 4.42%,
O=C(NCc1cccnc1)c1cc(C2CCCN(C(=O)c3cccc(O)c3)C2)on1 (stereo not given),inactive: 19.8%,
CN(C)S(=O)(=O)c1cccc(C(=O)Nc2ccc(C(=O)Nc3cccc(S(N)(=O)=O)c3)cc2)c1,inactive: -18.9%,
COc1ccccc1NC(=O)C1Cc2ccccc2CN1C(=O)c1ccco1 (stereo not given),inactive: -0.528%,
O=C(CC(Nc1ccc(F)cc1)C(=O)O)c1ccccc1 (stereo not given),inactive: 18%,
O=C(NCc1ccc(F)cc1)N1CCN(S(=O)(=O)c2ccccc2F)CC1,inactive: 16.3%,
O=C(COC(=O)/C=C/c1cccc(C(F)(F)F)c1)NCc1ccccc1,inactive: 10.4%,
Cc1cc(NC(=O)CCCN2C(=O)/C(=C/c3cccs3)SC2=S)no1,inactive: 13%,
CCOC(=O)c1ccc2nc(NC(C)=O)sc2c1,inactive: 9.2%,
CC(=O)N1N=C(c2cccs2)CC1c1cccc([N+](=O)[O-])c1 (stereo not given),inactive: 25.2%,
CCOc1ccc(CCNS(=O)(=O)c2ccc3c(c2)NC(=O)CC(=O)N3)cc1OCC,inactive: -7.67%,
COc1cc(OC)c(S(=O)(=O)Nc2ccc(C(=O)O)cc2)cc1S(=O)(=O)Nc1ccc(C(=O)O)cc1,inactive: -14.8%,
CCCN(CCC)CCCNC(=O)c1cc2c(=O)n(CC)c3ccccc3c2s1,inactive: -14%,
Cc1ccc(Nc2cc(=O)[nH]c(=O)[nH]2)cc1C,,inactive
CCOC(=O)C1CCN(C(=O)C(C)c2ccc([N+](=O)[O-])cc2)CC1 (stereo not given),inactive: 21.4%,
Cc1ccccc1-n1nc(C)c(N=O)c1N,inactive: -2.77%,
CC(C)CN(C)C(=O)CCc1nnc(Cc2cccc(C(F)(F)F)c2)o1,inactive: 4.78%,
Cc1cc(N/N=C/c2ccc(O)cc2O)nc(-n2nc(C)cc2C)n1,inactive: 9.14%,
COc1cc(OC)c(CN2CCc3c([nH]c4ccccc34)C2)cc1Br,inactive: -9.64%,
Cc1ccc(C(=O)C2CCN(CC(=O)N3CCN(c4ccc(F)cc4)CC3)CC2)cc1,inactive: 8.69%,
CS/C(=N\S(=O)(=O)c1cccs1)NC(=O)CSc1nc2ccccc2s1,inactive: 8.34%,
CCOc1ccc(NC(=O)COc2ccc(N3CC(C(N)=O)CC3=O)cc2)cc1 (stereo not given),inactive: -7.42%,
CCOCCCNC(=O)c1ccc2c(c1)ncn2-c1ccc(C)cc1C,inactive: 11%,
